{"source": "PubChem BioAssay AID624170", "about": "(National Center for Advancing Translational Sciences (NCATS), 2012)", "note": "Where “and” joins values, the source holds several entries; their conditions need not be identical. Equal values may be shown once. Screen size: about 410,000 compounds; about 850 (0.21%) were called active. Inconclusive results, whose numbers are uncertain, are shown with a selection of clear calls. Calls follow the shape of the dose curve; as a rule, active = well fitted inhibition curve with a large enough effect; inconclusive = small, poorly fitted or top-dose-only effect, or another doubt; inactive = no such curve, though single readings can be large or run the other way. Potencies of inconclusive entries are doubtful fits and often do not repeat. Potency is read from the fitted curve at half-maximal effect; tags tell the direction and shape of the fitted curve.", "data": [{"target": "Glutaminase kidney isoform, mitochondrial (Homo sapiens) (UniProt O94925)", "sequence (O94925 whole entry, looked up, canonical isoform)": "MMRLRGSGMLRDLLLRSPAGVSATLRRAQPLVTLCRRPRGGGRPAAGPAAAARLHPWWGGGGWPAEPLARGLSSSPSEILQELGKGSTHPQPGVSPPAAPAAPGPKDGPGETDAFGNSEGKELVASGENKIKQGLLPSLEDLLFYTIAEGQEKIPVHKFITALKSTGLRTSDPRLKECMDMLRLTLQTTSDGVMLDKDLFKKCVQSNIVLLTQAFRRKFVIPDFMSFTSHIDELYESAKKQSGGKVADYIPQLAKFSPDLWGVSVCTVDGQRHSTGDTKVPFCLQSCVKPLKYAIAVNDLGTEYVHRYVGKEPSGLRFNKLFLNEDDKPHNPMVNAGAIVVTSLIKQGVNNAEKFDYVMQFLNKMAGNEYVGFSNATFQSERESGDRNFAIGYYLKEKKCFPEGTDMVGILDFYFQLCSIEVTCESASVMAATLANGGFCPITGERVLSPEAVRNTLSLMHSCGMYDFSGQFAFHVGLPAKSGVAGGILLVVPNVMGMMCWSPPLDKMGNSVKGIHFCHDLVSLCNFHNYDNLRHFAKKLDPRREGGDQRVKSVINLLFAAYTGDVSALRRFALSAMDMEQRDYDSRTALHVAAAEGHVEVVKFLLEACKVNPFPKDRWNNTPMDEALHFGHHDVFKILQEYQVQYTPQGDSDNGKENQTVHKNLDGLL", "experiment": "qHTS for Inhibitors of Glutaminase (GLS)", "conditions": "GLS enzymatic activity, qHTS titration; series mostly up to 45.5 µM", "outline": "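Read-out is an Amplex red fluorescence increase coupled through glutamate oxidase and HRP, measured before and after 30 min room-temperature incubation. hKGA is in 45 mM KH2PO4 (pH 8.2) with 0.02% Tween-20; glutamine added as 1mM solution.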", "values": [{"smiles": "CCCCCCn1c(O)c(/C=N/N2CCCCCC2)c(=O)[nH]c1=O", "Potency": "inconclusive: 25.1 µM [inhibitor, single point]"}, {"smiles": "CC(C)(C)c1cc(O)ccc1O", "Potency": "inconclusive: 22.4 µM [inhibitor, partial curve, poor fit]"}, {"smiles": "C=CCn1c(O)c(C=Nc2ccc(Cc3ccncc3)cc2)c(=O)[nH]c1=S", "Potency": "inconclusive: 25.1 µM [inhibitor, single point]"}, {"smiles": "O=C(O)Cn1cc(/C=C2\\C(=O)NC(=O)N(Cc3ccco3)C2=O)c2ccccc21", "Potency": "inconclusive: 15.8 µM [inhibitor, single point]"}, {"smiles": "Cc1ccc2c(Cl)cc(Cl)c(O)c2n1", "Potency": "inconclusive: 17.8 µM [inhibitor, partial curve]"}, {"smiles": "CC(Cc1ccc(O)cc1)NCC(O)c1ccc(O)c(O)c1", "note": "(centres undefined)", "Potency": "inconclusive: 7.08 µM [inhibitor, partial curve]"}, {"smiles": "O=c1cc(-c2ccc(O)c(O)c2)oc2cc(O)cc(O)c12", "Potency": "inconclusive: 35.5 µM [inhibitor, single point]"}, {"smiles": "O=C(c1ccccc1F)c1cn(CC(=O)N2CCCC2)c2ccccc12", "Potency": "inconclusive: 35.5 µM [inhibitor, single point]"}, {"smiles": "O=C(CCc1ccccc1)N1Cc2cc(N3CCOCC3)ccc2-n2nncc2C1", "Potency": "inactive"}, {"smiles": "COC(=O)C(O)(c1ccc(NC(=O)c2ccccc2)cc1)C(F)(F)F", "note": "(centres undefined)", "Potency": "inactive"}, {"smiles": "O=C(NC1(C(F)(F)F)Oc2ccccc2O1)N1CCC2(CC1)OCCO2", "Potency": "inconclusive: 35.5 µM [inhibitor, single point]"}, {"smiles": "O=Cc1ccc(O)c(O)c1", "Potency": "inconclusive: 35.5 µM [inhibitor, single point]"}, {"smiles": "CCC1(O)C(=O)OCc2c1cc1n(c2=O)Cc2cc3cc(O)ccc3nc2-1", "note": "(centres undefined)", "Potency": "inconclusive: 22.4 µM [inhibitor, single point]"}, {"smiles": "CN(C)c1ccc(C=C2C(=O)NC(=O)NC2=O)cc1[N+](=O)[O-]", "Potency": "inconclusive: 35.5 µM [inhibitor, single point]"}, {"smiles": "C=CCn1c(CSc2ccccc2[N+](=O)[O-])n[nH]c1=S", "Potency": "inconclusive: 17.8 µM [inhibitor, partial curve]"}, {"smiles": "Cc1ccc(CN2CCC3CCC(C3)C2)c(O)c1", "note": "(centres undefined)", "Potency": "inconclusive: 35.5 µM [inhibitor, single point]"}, {"smiles": "COc1ccc2c(c1OC)C[N+]1([O-])CCc3cc4c(cc3C1C2)OCO4", "note": "(centres undefined)", "Potency": "inconclusive: 25.1 µM [inhibitor, single point]"}, {"smiles": "O=C1NC(=O)N(Cc2ccccc2)C(=O)/C1=C\\C=C\\c1ccco1", "Potency": "inconclusive: 6.31 µM [inhibitor, full curve]"}, {"smiles": "CCOC(=O)[C@]12Cc3cc(C)ccc3[C@H]1N(Cc1ccccc1)C(=O)c1cc(F)c(F)cc12", "Potency": "inconclusive: 15.8 µM [inhibitor, single point]"}, {"smiles": "O=c1[nH]c(=O)n(-c2cccc3ccccc23)c(O)c1/C=N/N1CCCCC1", "Potency": "inconclusive: 10 µM [inhibitor, partial curve]"}, {"smiles": "Cc1ccc2n1Cc1cnnn1-c1ccccc1-2", "Potency": "inactive"}, {"smiles": "COC1CC(C)C(OC)c2cc(O)cc(c2O)NC(=O)C(C)=CC=CC(C)C(OC(N)=O)C(C)=CC(C)C1OC", "note": "(centres undefined)", "Potency": "inconclusive: 25.1 µM [inhibitor, single point]"}, {"smiles": "COc1ccc(N2C(=O)/C(=C/c3cc(C)n(-c4ccc(C)cn4)c3C)C(=O)NC2=S)c(OC)c1", "Potency": "inconclusive: 25.1 µM [inhibitor, single point]"}, {"smiles": "S=c1[nH]nc(-c2ccco2)n1Cc1ccccc1", "Potency": "inconclusive: 14.1 µM [inhibitor, single point]"}, {"smiles": "NC1CCc2cc(O)c(O)cc2C1", "note": "(centres undefined)", "Potency": "inconclusive: 35.5 µM [inhibitor, single point]"}, {"smiles": "CN1CCN(/N=C/c2c[nH]c3ccccc23)CC1", "Potency": "inconclusive: 10 µM [inhibitor, partial curve]"}, {"smiles": "CCN(CC)C(=O)c1c(C)[nH]c(=S)c(C#N)c1-c1ccco1", "Potency": "inconclusive: 15.8 µM [inhibitor, partial curve]"}, {"smiles": "COc1ccc(C=C2C(=O)NC(=S)NC2=O)cc1OC", "Potency": "inconclusive: 5.62 µM [inhibitor, partial curve, poor fit]"}, {"smiles": "CC(OC(=O)COc1ccc(Nc2ccccc2)cc1)C(=O)N(C)c1ccccc1", "note": "(centres undefined)", "Potency": "inconclusive: 12.6 µM [inhibitor, partial curve]"}, {"smiles": "O=C(NC12CC3CC(CC(C3)C1)C2)OC1CN2CCC1CC2", "note": "(centres undefined)", "Potency": "inconclusive: 22.4 µM [inhibitor, single point]"}, {"smiles": "CC1=NNC(=O)C1Cc1ccc(F)cc1", "note": "(centres undefined)", "Potency": "inconclusive: 15.8 µM [inhibitor, single point]"}, {"smiles": "COc1ccc2nc3c(C)n(C)ccc-3c2c1", "Potency": "inactive"}, {"smiles": "C[C@@H]1CCC2[C@@H](C)C(=O)O[C@@H]3OC4(C)CCC1[C@@]23OO4", "note": "(some centres undefined)", "Potency": "inactive"}, {"smiles": "NC(=O)c1c(NC(=O)c2ccc(S(=O)(=O)N(CCCl)CCCl)cc2)sc2c1CCCCC2", "Potency": "inactive"}, {"smiles": "CCc1ccc(CN2CCN(Cc3cc(Br)ccc3O)CC2)cc1", "Potency": "inactive"}, {"smiles": "COc1ccc(O)c(C(=O)c2cnn(-c3ccccn3)c2)c1", "Potency": "inconclusive: 12.6 µM [inhibitor, single point]"}, {"smiles": "COC(=O)C1=C(c2ccc(Cl)c(C(F)(F)F)c2)C[C@@H]2CC[C@H]1N2C(=O)N1CCC(O)(c2ccc(Cl)cc2)CC1", "Potency": "inactive"}, {"smiles": "O=C(Nc1ccc(COc2ccccc2)cc1)Oc1ccccc1N1CCOCC1", "Potency": "inconclusive: 14.1 µM [inhibitor, partial curve, poor fit]"}, {"smiles": "COC(=O)C1=C(c2ccc(F)cc2OCc2ccccc2)C[C@@H]2CC[C@H]1N2C(=O)NCc1ccco1", "Potency": "inactive"}, {"smiles": "NC(=O)CN1C2CCC1CC(NC(=O)C1CC1)C2", "note": "(centres undefined)", "Potency": "inconclusive: 4.47 µM [inhibitor, single point]"}, {"smiles": "CC(C)CCOP(=O)(c1ccc(N(C)C)cc1)C(O)c1ccc(Cl)cc1Cl", "note": "(centres undefined)", "Potency": "inconclusive: 35.5 µM [inhibitor, single point]"}, {"smiles": "CC1=CC2/C=C(\\C)CCC(O)C(O)/C=C/C(=O)C23C(=O)NC(CC(C)C)C3C1C", "note": "(centres undefined)", "Potency": "inactive"}, {"smiles": "O=Cc1c(C(=O)O)n(Cc2ccc(Cl)cc2)c2ccccc12", "Potency": "inactive"}, {"smiles": "CCOP(=S)(OCC)SCC(=O)NC(C(=O)O)C(C)C", "note": "(centres undefined)", "Potency": "inconclusive: 35.5 µM [inhibitor, single point]"}, {"smiles": "Oc1ccc(C2=CCNCC2)cc1O", "Potency": "inconclusive: 15.8 µM [inhibitor, single point]"}, {"smiles": "COc1cc(C)cc(CN2CC=C(c3ccccc3)CC2)c1O", "Potency": "inconclusive: 11.2 µM [inhibitor, partial curve]"}, {"smiles": "CCOC(=O)[C@]12Cc3cc(Cl)ccc3[C@H]1N(C)C(=O)c1cc(OC)ccc12", "Potency": "inconclusive: 14.1 µM [inhibitor, partial curve]"}, {"smiles": "O=C1Nc2ccccc2C1Cc1nc2ccccc2c(=O)n1-c1ccccc1", "note": "(centres undefined)", "Potency": "inactive"}, {"smiles": "CC(C)c1ccc(C(c2c(O)c3ccccc3oc2=O)c2c(O)c3ccccc3oc2=O)cc1", "Potency": "inconclusive: 35.5 µM [inhibitor, single point]"}, {"smiles": "NC(N)=Nc1ccc2[nH]c3c(c2c1)C[C@@]1(O)[C@H]2Cc4ccc(O)c5c4[C@@]1(CCN2CC1CC1)[C@H]3O5", "Potency": "inactive"}, {"smiles": "CCC(C(=O)O)C1CCC(C)C(C(C)C(O)C(C)C(=O)C(CC)C2OC3(C=CC(O)[C@@]4(CC[C@](C)(C5CC[C@@](O)(CC)C(C)O5)O4)O3)C(C)CC2C)O1", "note": "(some centres undefined)", "Potency": "inconclusive: 31.6 µM [inhibitor, partial curve, poor fit]"}, {"smiles": "CN(C)CCc1c[nH]c2ccccc12", "Potency": "inactive"}, {"smiles": "CCN1C(=O)C(=C/C=C/c2ccco2)C(=O)N(CC)C1=S", "Potency": "active: 7.08 µM"}, {"smiles": "CCCCCCCC(=O)NC(Oc1ccccc1[N+](=O)[O-])C(Cl)(Cl)Cl", "note": "(centres undefined)", "Potency": "inconclusive: 35.5 µM [inhibitor, single point]"}, {"smiles": "O=P(N1CC1)(N1CC1)N1CCc2ccccc21", "Potency": "inconclusive: 22.4 µM [inhibitor, partial curve, poor fit]"}, {"smiles": "CCOC(=O)[C@]12Cc3cc(OC)ccc3[C@H]1N(CC(=O)OC)C(=O)c1cc(OC)ccc12", "Potency": "inconclusive: 12.6 µM [inhibitor, partial curve]"}, {"smiles": "CCN1CCN(c2ccc(N)c(C)c2)CC1", "Potency": "inconclusive: 11.2 µM [inhibitor, partial curve, poor fit]"}, {"smiles": "Cc1c(C)c2cc(Cl)c(OCC(=O)N3C[C@H]4C[C@@H](C3)c3cccc(=O)n3C4)cc2oc1=O", "Potency": "inactive"}, {"smiles": "c1ccc(-c2nc(N3CCOCC3)s[n+]2-c2ccccc2)cc1", "Potency": "inconclusive: 8.91 µM [inhibitor, partial curve, poor fit]"}, {"smiles": "CC(=O)O[C@@]12CO[C@@H]1C[C@H](OC1OCC(O)C(O)C1O)[C@@]1(C)C(=O)[C@H](O)C3=C(C)[C@@H](OC(=O)[C@H](O)[C@@H](NC(=O)c4ccccc4)c4ccccc4)C[C@@](O)([C@@H](OC(=O)c4ccccc4)C12)C3(C)C", "note": "(some centres undefined)", "Potency": "inconclusive: 15.8 µM [inhibitor, single point]"}, {"smiles": "O=c1oc2ccccc2c(O)c1[C@H]1c2ccc(O)cc2Oc2c1c(=O)oc1ccccc21", "Potency": "inconclusive: 35.5 µM [inhibitor, single point]"}, {"smiles": "C[CH2][Hg][S]c1ccccc1C(=O)O", "Potency": "inconclusive: 25.1 µM [inhibitor, single point] and inconclusive: 35.5 µM [inhibitor, single point]"}, {"smiles": "O=C(O)CCC(=O)NCCC1=c2ccccc2=N/C1=C\\c1c(O)n(Cc2ccc(F)cc2)c(=S)[nH]c1=O", "Potency": "inconclusive: 10 µM [inhibitor, partial curve, poor fit]"}, {"smiles": "Cc1ccnc(-n2c(C)cc(/C=C3\\C(=O)NC(=S)N(C)C3=O)c2C)c1", "Potency": "inconclusive: 25.1 µM [inhibitor, single point]"}]}]}
